Data on 19 molecules can be found in the supplement of paper PMC10369915.

The list shows a part of the results. Rule as the data show it: active = 3.2 or more and inactive = the rest. Only a few entries rise above the background.
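Also: displayed peptides selected on beads carrying the immobilized SH2 domain, with library peptides lacking any tyrosine serving as negative controls.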

The first assay has as its target SHP2 C-SH2 domain E139D. Nature of the assay: enrichment score (SH2-bound / input frequency) (ratio); bacterial display of known human phosphotyrosine sites (pTyr-Var adds point mutants) read by sequencing; higher = stronger binding; tyrosines were phosphorylated by kinases first. The following applies: peptide library: pTyr-Var.
For the molecule KDQGTYEDYVE [MYL6_Y86], the enrichment score is inactive: 0.509.

Take AKRKGYDMRVD [NEB_Y2770]: the enrichment score is inactive: 0.552.

With PFQGAYLKINK [MYO1B_Y967_E969K], the enrichment score is inactive: 1.18.

On to ADKSAYLMGPN [MYH7_Y386_L390P], for which the enrichment score is inactive: 0.818.

Turning to PATINYLFEKG [NDUFS8_Y84_P85L], the enrichment score is inactive: 1.58.

With GIFEDYVEGLR [MYL6_Y89_T85I_YF], the enrichment score is inactive: 1.04.

As to KVVNEYVTKGQ [MYH7_Y410_G407V], the enrichment score is inactive: 0.733.

As to KVGNEYITKGQ [MYH7_Y410_V411I], the enrichment score is inactive: 0.844.

Take ALERPYTSKHS [NANS_Y71]: the enrichment score was inactive: 0.762.

In the case of KSELAYEIFDK [MYOM2_Y1024], the enrichment score is inactive: 0.827.

With AAAAMYTFLPD [MYORG_Y36], the enrichment score is inactive: 1.24.

On to RAILLYEYVGK [NATD1_Y45_V42I], for which the enrichment score was active: 3.87.

For PRAEWYRDDVL [MYOM2_Y317], the enrichment score is inactive: 0.842.

For RAVLLYEFVGK [NATD1_Y45_YF], the enrichment score is inactive: 1.91.

Consider MPPHICAITDT [MYH9_Y151_Y151C], for which the enrichment score is inactive: 1.36.

Consider SKEPYYVHCIK [MYO1D_Y586_R588H], for which the enrichment score is inactive: 0.73.

Consider YAGRDYSLDEF [MYOF_Y1705_G1701A], for which the enrichment score is inactive: 0.756.

As for KYVKMYDNHQL [MYO9A_Y203], the enrichment score was inactive: 0.889.

In the case of FSLIHYASIVD [MYH7_Y582_G584S], the enrichment score is active: 7.7.

The target in a further assay is SHP2 C-SH2 domain wild-type. The description is as above. The note with it: peptide library: pTyr-Var.
Turning to KDQGTYEDYVE [MYL6_Y86], the enrichment score is inactive: 0.46.

In the case of AKRKGYDMRVD [NEB_Y2770], the enrichment score is inactive: 0.47.

In the case of PFQGAYLKINK [MYO1B_Y967_E969K], the enrichment score is inactive: 1.68.

Regarding ADKSAYLMGPN [MYH7_Y386_L390P], the enrichment score was inactive: 0.659.

Consider PATINYLFEKG [NDUFS8_Y84_P85L], for which the enrichment score is inactive: 0.881.

For GIFEDYVEGLR [MYL6_Y89_T85I_YF], the enrichment score was inactive: 1.

For the molecule KVVNEYVTKGQ [MYH7_Y410_G407V], the enrichment score is inactive: 0.736.

On to KVGNEYITKGQ [MYH7_Y410_V411I], for which the enrichment score is inactive: 0.82.

On to ALERPYTSKHS [NANS_Y71], for which the enrichment score is inactive: 0.626.

For the molecule KSELAYEIFDK [MYOM2_Y1024], the enrichment score is inactive: 0.87.

As for AAAAMYTFLPD [MYORG_Y36], the enrichment score is inactive: 1.15.

With RAILLYEYVGK [NATD1_Y45_V42I], the enrichment score was active: 3.56.

With PRAEWYRDDVL [MYOM2_Y317], the enrichment score is inactive: 0.871.

As for RAVLLYEFVGK [NATD1_Y45_YF], the enrichment score was inactive: 2.38.

Regarding MPPHICAITDT [MYH9_Y151_Y151C], the enrichment score is inactive: 1.35.

SKEPYYVHCIK [MYO1D_Y586_R588H]: the enrichment score is inactive: 0.903.

Regarding YAGRDYSLDEF [MYOF_Y1705_G1701A], the enrichment score was inactive: 0.724.

Regarding KYVKMYDNHQL [MYO9A_Y203], the enrichment score is inactive: 0.773.

With FSLIHYASIVD [MYH7_Y582_G584S], the enrichment score is active: 7.88.

A further assay addresses SHP2 N-SH2 domain L43F. The assay is described as above. The note with it: peptide library: pTyr-Var.
For the molecule KDQGTYEDYVE [MYL6_Y86], the enrichment score is inactive: 0.376.

On to AKRKGYDMRVD [NEB_Y2770], for which the enrichment score was inactive: 0.449.

PFQGAYLKINK [MYO1B_Y967_E969K]: the enrichment score was inactive: 1.36.

Regarding ADKSAYLMGPN [MYH7_Y386_L390P], the enrichment score is inactive: 0.638.

Take PATINYLFEKG [NDUFS8_Y84_P85L]: the enrichment score is inactive: 1.41.

For GIFEDYVEGLR [MYL6_Y89_T85I_YF], the enrichment score is inactive: 1.07.

Take KVVNEYVTKGQ [MYH7_Y410_G407V]: the enrichment score is inactive: 0.733.

KVGNEYITKGQ [MYH7_Y410_V411I]: the enrichment score was inactive: 0.768.

On to ALERPYTSKHS [NANS_Y71], for which the enrichment score was inactive: 0.675.

In the case of KSELAYEIFDK [MYOM2_Y1024], the enrichment score is inactive: 0.879.

As for AAAAMYTFLPD [MYORG_Y36], the enrichment score was inactive: 1.01.

For RAILLYEYVGK [NATD1_Y45_V42I], the enrichment score was active: 3.48.

In the case of PRAEWYRDDVL [MYOM2_Y317], the enrichment score is inactive: 0.762.

Regarding RAVLLYEFVGK [NATD1_Y45_YF], the enrichment score is inactive: 2.16.

On to MPPHICAITDT [MYH9_Y151_Y151C], for which the enrichment score was inactive: 1.12.

For the molecule SKEPYYVHCIK [MYO1D_Y586_R588H], the enrichment score is inactive: 0.6.

In the case of YAGRDYSLDEF [MYOF_Y1705_G1701A], the enrichment score was inactive: 0.891.

For KYVKMYDNHQL [MYO9A_Y203], the enrichment score was inactive: 0.912.

In the case of FSLIHYASIVD [MYH7_Y582_G584S], the enrichment score was active: 4.3.

The target in a further assay is SHP2 N-SH2 domain T42A. Described as above. The following applies: peptide library: pTyr-Var.
Regarding KDQGTYEDYVE [MYL6_Y86], the enrichment score is inactive: 0.476.

On to AKRKGYDMRVD [NEB_Y2770], for which the enrichment score was inactive: 0.465.

For the molecule PFQGAYLKINK [MYO1B_Y967_E969K], the enrichment score is inactive: 1.36.

Consider ADKSAYLMGPN [MYH7_Y386_L390P], for which the enrichment score is inactive: 0.522.

As for PATINYLFEKG [NDUFS8_Y84_P85L], the enrichment score was inactive: 1.67.

GIFEDYVEGLR [MYL6_Y89_T85I_YF]: the enrichment score was inactive: 0.854.

For KVVNEYVTKGQ [MYH7_Y410_G407V], the enrichment score is inactive: 0.65.

Turning to KVGNEYITKGQ [MYH7_Y410_V411I], the enrichment score was inactive: 0.889.

Consider ALERPYTSKHS [NANS_Y71], for which the enrichment score is inactive: 0.533.

For KSELAYEIFDK [MYOM2_Y1024], the enrichment score is inactive: 0.719.

With AAAAMYTFLPD [MYORG_Y36], the enrichment score was inactive: 0.93.

Turning to RAILLYEYVGK [NATD1_Y45_V42I], the enrichment score is active: 3.25.

Take PRAEWYRDDVL [MYOM2_Y317]: the enrichment score is inactive: 0.722.

In the case of RAVLLYEFVGK [NATD1_Y45_YF], the enrichment score is inactive: 2.02.

Take MPPHICAITDT [MYH9_Y151_Y151C]: the enrichment score is inactive: 1.16.

On to SKEPYYVHCIK [MYO1D_Y586_R588H], for which the enrichment score was inactive: 0.76.

As for YAGRDYSLDEF [MYOF_Y1705_G1701A], the enrichment score was inactive: 0.712.

Consider KYVKMYDNHQL [MYO9A_Y203], for which the enrichment score is inactive: 0.833.

As for FSLIHYASIVD [MYH7_Y582_G584S], the enrichment score is active: 8.31.

In another assay the target is SHP2 N-SH2 domain T52S. The assay is described as above. The following applies: peptide library: pTyr-Var.
Turning to KDQGTYEDYVE [MYL6_Y86], the enrichment score was inactive: 0.735.

Take AKRKGYDMRVD [NEB_Y2770]: the enrichment score was inactive: 0.519.

Consider PFQGAYLKINK [MYO1B_Y967_E969K], for which the enrichment score was inactive: 1.11.

ADKSAYLMGPN [MYH7_Y386_L390P]: the enrichment score was inactive: 0.579.

With PATINYLFEKG [NDUFS8_Y84_P85L], the enrichment score was inactive: 1.02.

Regarding GIFEDYVEGLR [MYL6_Y89_T85I_YF], the enrichment score was inactive: 0.862.

Regarding KVVNEYVTKGQ [MYH7_Y410_G407V], the enrichment score was inactive: 0.744.

For the molecule KVGNEYITKGQ [MYH7_Y410_V411I], the enrichment score is inactive: 0.714.

With ALERPYTSKHS [NANS_Y71], the enrichment score is inactive: 0.799.

As for KSELAYEIFDK [MYOM2_Y1024], the enrichment score was inactive: 0.847.

As for AAAAMYTFLPD [MYORG_Y36], the enrichment score is inactive: 1.01.

For RAILLYEYVGK [NATD1_Y45_V42I], the enrichment score was inactive: 3.06.

As to PRAEWYRDDVL [MYOM2_Y317], the enrichment score was inactive: 0.879.

For RAVLLYEFVGK [NATD1_Y45_YF], the enrichment score was inactive: 2.36.

For MPPHICAITDT [MYH9_Y151_Y151C], the enrichment score was inactive: 1.11.

In the case of SKEPYYVHCIK [MYO1D_Y586_R588H], the enrichment score is inactive: 0.608.

Turning to YAGRDYSLDEF [MYOF_Y1705_G1701A], the enrichment score was inactive: 0.651.

With KYVKMYDNHQL [MYO9A_Y203], the enrichment score was inactive: 2.3.

FSLIHYASIVD [MYH7_Y582_G584S]: the enrichment score was active: 4.9.

Another assay concerns the target SHP2 N-SH2 domain wild-type. The description is as above. The note with it: peptide library: pTyr-Var.
In the case of KDQGTYEDYVE [MYL6_Y86], the enrichment score is inactive: 0.6.

AKRKGYDMRVD [NEB_Y2770]: the enrichment score was inactive: 0.435.

As for PFQGAYLKINK [MYO1B_Y967_E969K], the enrichment score was inactive: 1.28.

With ADKSAYLMGPN [MYH7_Y386_L390P], the enrichment score is inactive: 0.603.

In the case of PATINYLFEKG [NDUFS8_Y84_P85L], the enrichment score was inactive: 1.42.

Regarding GIFEDYVEGLR [MYL6_Y89_T85I_YF], the enrichment score was inactive: 0.841.

KVVNEYVTKGQ [MYH7_Y410_G407V]: the enrichment score is inactive: 0.836.

For KVGNEYITKGQ [MYH7_Y410_V411I], the enrichment score is inactive: 0.932.

As to ALERPYTSKHS [NANS_Y71], the enrichment score is inactive: 0.948.

Consider KSELAYEIFDK [MYOM2_Y1024], for which the enrichment score was inactive: 0.859.

On to AAAAMYTFLPD [MYORG_Y36], for which the enrichment score was inactive: 1.2.

As to RAILLYEYVGK [NATD1_Y45_V42I], the enrichment score was inactive: 3.06.

As for PRAEWYRDDVL [MYOM2_Y317], the enrichment score was inactive: 0.777.

As for RAVLLYEFVGK [NATD1_Y45_YF], the enrichment score is inactive: 2.27.

MPPHICAITDT [MYH9_Y151_Y151C]: the enrichment score is inactive: 2.1.

On to SKEPYYVHCIK [MYO1D_Y586_R588H], for which the enrichment score is inactive: 0.749.

For the molecule YAGRDYSLDEF [MYOF_Y1705_G1701A], the enrichment score is inactive: 0.667.

For KYVKMYDNHQL [MYO9A_Y203], the enrichment score is inactive: 0.94.

Take FSLIHYASIVD [MYH7_Y582_G584S]: the enrichment score is inactive: 2.16.
